B1: chr8:102207567:102207681:-|3pUTR|ENSG00000048392|unk|total|mutant (ssRNA)
RNA: GGGAGUUCUACAGUCCGACGAUCUAUUAAUUGCAAUGAUGUUGUAAUAAAAUACUCUCAUUUCCUUAAAAUAAUUGUGAUUCCCGGUCCCCGGAUCCCGAAUCCGAUCUUUGUAUUUUUAAUGCUCCGGGGAAGAAUAUAAGUCAACAGAGGAUUGAGCAUCA
B2: ENSG00000056097:stop:overlap|stop_codon|ENSG00000056097|stop_codon|NA|stop_codon (ssRNA)
RNA: GGGAGUUCUACAGUCCGACGAUCAAGUCACUAUCACACUGACAUCUCCAAUUAUUCGAGAAGAGAACAUGAGGGAAGGAGGCUAGAGCUAAUGGUCUGCAGUCCUGUGUGAUUAUCAUACGCAUUCUUCGAGACCUCUGUCAGCAACAGAGGAUUGAGCAUCA
B3: ENSG00000198589:be:win_2351|CDS|ENSG00000198589|bound_else_gene|NA|bound_elsewhere_windowed (ssRNA)
RNA: GGGAGUUCUACAGUCCGACGAUCAUAAUGUGCUGUUUGAGAUUCUUAUAGAACAGAUUGGUACUCAGGUGAUACAUAAACAGCAUCCAGAUCCUGAUUCUUCAGUGAAGAUACAAAACCCUCAGAUACUAAAAGUAAUUGCGACAACAGAGGAUUGAGCAUCA
B4: ENSG00000198589:be:win_9051|3pUTR|ENSG00000198589|bound_else_gene|NA|bound_elsewhere_windowed (ssRNA)
RNA: GGGAGUUCUACAGUCCGACGAUCGUAAAUGUAAUUUAAAACAUCUCAAUUAAGUCUGUCUAUCAAUAUUGUUCUUCAAGCAUGUUUUAGACCUAGAAAAGUAUGGUUUGGGGGAGGCUAUUUUAUUGUGUGGUUAGCACAAGGCAACAGAGGAUUGAGCAUCA
B5: chr1:180199467:180199568:+|3pUTR|ENSG00000116260|msi1|FALSE|unique (ssRNA)
RNA: GGGAGUUCUACAGUCCGACGAUCCACAGGAACAAUUUCCUCAAGGAGACAGUGGCAUGGAGCUUUGAAAGACGAGUAGGUGUUAGCAAGGAAAUAAGGAGGAACGGGGGUUACGGGCAGAGGAGAAAGCACAUGCCAAGUCAGCAACAGAGGAUUGAGCAUCA
B6: chr4:186588032:186588133:-|3pUTR|ENSG00000083857|msi1|total|mutant (ssRNA)
RNA: GGGAGUUCUACAGUCCGACGAUCUUUUUUUACUAUAACCAGGGUUUCAUUCUGUCUUUUUCCACUGAAGUGUGACAUUUUGUCCGUACAUUUCAGUGCCGUCAUUCAUUUCCCGCUGUACACCGGAUGAAGGAGAGAUCAGAUCAACAGAGGAUUGAGCAUCA
B7: chr1:111147767:111147876:+|CDS|ENSG00000134255|unk|FALSE|unique (ssRNA)
RNA: GGGAGUUCUACAGUCCGACGAUCAUUAAAUAAAUUGUUUCAGUUACCAACACCACCAUUGUCAAGACACCAACUAAAGCGGCUAGAAGAACACAGAUAUCAAAGUGCUGGACGGUCCCUGCUUGAGCCCUUAAUGCAAGGGUACAACAGAGGAUUGAGCAUCA
B8: chr11:118396625:118396726:+|3pUTR|ENSG00000110344|msi1|total|mutant (ssRNA)
RNA: GGGAGUUCUACAGUCCGACGAUCAACUUGACAAUGCUCCCCUGGCUUGCAGGAAAUUAUACUUAUUACCGCAUCACCAAGUUCCGAAAUCAUCACUAAUUUUCACCCUCUGUUGUCUCUUCAUAUUCUUCUUCCUUUUCCUAACAACAGAGGAUUGAGCAUCA
B9: chr10:110133424:110133536:+|CDS|ENSG00000148700|unk|total|mutant (ssRNA)
RNA: GGGAGUUCUACAGUCCGACGAUCGCAUGAUGUUGAAGAUGAGCUUGCUAAGCGAGUGAGCCGGUUAAGCACAAGUACAACCACCGAAAACAUCGAGAUUACUAUUAAGUCUCCAGAGAAAAUCGAAGAAGUCCUGUCACCUGACAACAGAGGAUUGAGCAUCA
B10: ENSG00000136451:be:win_1051|CDS|ENSG00000136451|bound_else_gene|NA|bound_elsewhere_windowed (ssRNA)
RNA: GGGAGUUCUACAGUCCGACGAUCCAACAACAACAACAUGUGACAAGCUGGCCAGGGAAGCAAGUAGAAACACUGAGACUGUGGGAAGAAGCUGUUAAAGCAAGGAAGAAAGAAGCUGCUAACCUGUGCCAAACCUCCACGGCUCAACAGAGGAUUGAGCAUCA
B11: chr2:70277881:70277982:+|3pUTR|ENSG00000116005|msi1|FALSE|unique (ssRNA)
RNA: GGGAGUUCUACAGUCCGACGAUCACCUGAGGGAGAACUUAAAGACAUCUUAGUUGGGGAGUAGUCCUUUUGAAUUUUACAGCUAGAUAUAAUCUUCAGUCAGAUAAAAUUUAUGGGAGCUGGUGUCUUAUGCCUGACUCUUAGCAACAGAGGAUUGAGCAUCA
B12: chr6:105098323:105098438:-|3pUTR|ENSG00000112276|msi1|FALSE|unique (ssRNA)
RNA: GGGAGUUCUACAGUCCGACGAUCUAUCAGUGUCUCAAUGUGAAGAUUGUAACCUCAAGAUUAGGAAUCUUAAAAGAGCCACUUAGCCUGAAUGGGAAACGUGAGACUAUUUUUAAACACACACCUCUAAGGAAGAAGCCUCCCCAACAGAGGAUUGAGCAUCA
B13: chr14:23351947:23352451:-|CDS|ENSG00000092096|control|control|control (ssRNA)
RNA: GGGAGUUCUACAGUCCGACGAUCUGCCUCUGGCUGGGAGCAGCCUCCCAAUGCCAGCGGCGUCAGCGUCGCCAGCGCUGCCCUAGCAGCCAGCGCCGCCAGCCGUGUCGCCACCAGUACCGACCCCUCGUGCAGCGGCUUCGCCAACAGAGGAUUGAGCAUCA
B14: chr19:17816511:17817055:-|three_prime_utr|ENSG00000248099|control|control|control (ssRNA)
RNA: GGGAGUUCUACAGUCCGACGAUCCUACCCCAGACCAAUGCCACCUGCAGCCUGUGGAGUCAACUGCAGAAUAAAUCACACCCUAGCCCUGGCUUGGAGGAUCCCCGCUUUCACAGAUGCUGGACACUGACAGCCAAAUGUCCUCAACAGAGGAUUGAGCAUCA

Some of the results follow.

In the assay the target is MSI1 full-length (mouse, UniProt Q61474 1-362). Briefly: nsRBNS (natural sequence RNA bind-n-seq); RBNS binding buffer (assumed for nsRBNS): 25 mM Tris pH 7.5, 150 mM KCl, 3 mM MgCl2, 0.01% Triton X-100, 500 ug/ml BSA, 20 U/ml SUPERase-In, 4 C; UNK is unkempt and MSI1 is Musashi-1; names of the RNAs are library labels; protein concentration not given here; high values mean tight binding.
UniProt Q61474, sequence (Q61474 whole entry): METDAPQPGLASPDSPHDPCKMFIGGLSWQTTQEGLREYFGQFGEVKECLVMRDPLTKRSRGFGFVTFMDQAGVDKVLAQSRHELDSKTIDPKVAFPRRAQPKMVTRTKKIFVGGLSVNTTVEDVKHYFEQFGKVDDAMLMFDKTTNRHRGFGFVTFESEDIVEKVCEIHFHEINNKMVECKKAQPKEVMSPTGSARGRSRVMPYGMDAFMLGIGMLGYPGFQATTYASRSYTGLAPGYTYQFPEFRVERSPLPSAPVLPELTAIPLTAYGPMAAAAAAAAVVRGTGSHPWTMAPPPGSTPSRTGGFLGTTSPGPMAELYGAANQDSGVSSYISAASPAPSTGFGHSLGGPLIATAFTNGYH
B1 yielded a binding signal of 0.414 enrichment R.

B2 yielded a binding signal of 0.441 enrichment R.

B3 returned a binding signal of 1.48 enrichment R.

As for B4, the binding signal was 3.05 enrichment R.

Consider B5, for which the binding signal was 1.07 enrichment R.

In the case of B6, the binding signal came to 0.482 enrichment R.

Molecule B7 gave a binding signal of 1.39 enrichment R.

Molecule B8 had a binding signal of 1.46 enrichment R.

On to B9, for which the binding signal turned out to be 0.233 enrichment R.

The molecule B10 came in with a binding signal of 0.491 enrichment R.

As for B11, the binding signal turned out to be 1.14 enrichment R.

B12 showed a binding signal of 0.667 enrichment R.

With B13, the binding signal was 0.366 enrichment R.

B14: the binding signal was 0.578 enrichment R.

These data come from publication PMC12136788.
